The campaign covered roughly 390,000 compounds. About 17,000 (4.4%) were called active. The inconclusive results got no clear call from the source; some entries with a clear call stand among them for comparison. Calls follow the shape of the dose curve; as a rule, active = well fitted inhibition curve with a large enough effect; inconclusive = small, poorly fitted or top-dose-only effect; inactive = no such curve, though single readings can be large or run the other way. Potencies beside an inconclusive call are fits to weak or partial responses and may not hold up.
What follows are molecules tested against Lysine-specific demethylase 4A (Homo sapiens) (UniProt O75164) (assay: qHTS Assay for Inhibitors of JMJD2A-Tudor Domain). Conditions: AlphaScreen JMJD2A-Tudor / H3K4me3 peptide binding; activity change, negative = inhibition: at 114 µM (top of the series).
Source text: JMJD2A is a jumonji-domain-containing lysine demethylase that uses Fe(II) together with 2-OG to effect oxidative demethylation of histones. Methylation is one of many […] modification that affect epigenetic transcription. […] It is proposed that the functions of JmjD2A binding to the histones, is to maintain marks after they are installed and to spread the modifications by […], establishing a self-propagating cycle for rapid methylation over a large area of chromatin. […] Thus, small molecule targeting of the JMJD2A-tudor domain interaction with its target methylhistone mark is expected to enable sophisticated experiments probing the fine regulatory pathways leading to selective demethylation of a given methyllysine locus based on the methylation state of adjacent histone marks. A quantitative high throughput AlphaScreen has been developed to identify small molecule inhibitors based on a protocol published by NCGC and SGC [4].
Although AlphaScreen has significant advantages with its utility in a variety of epigenetic target assays, the primary screening data provided in this deposition should be used with caution due to the prevalence of screening artifacts. The top compound concentration tested was high (>100uM) in this assay, which increases number of actives and potential artifacts. An AlphaScreen counterscreen is highly recommended to be run against any putative actives to eliminate non-specific artifacts. Alternatively, one can use other AlphaScreen assays in PubChem to filter out promiscuous hits.
[1] Lee, J. et al. Distinct binding modes specify the recognition of methylated histone H3K4 and H4K20 by JMJD2A-tudor. Nat Struct Mol Biol. 15(1); 109-11. 2008. PMID: 18084306
[2] Yasgar, et al. Compound Management for Quantitative High-Throughput Screening. JALA. 2008 Apr;13(2):79-89. PMID: 18496600
[3] Inglese, et al. Quantitative high-throughput screening: a titration-based approach that efficiently identifies biological activities in large chemical libraries. Proc Natl Acad Sci. 1;103(31):11473-8. 2006. PMID: 16864780
[4] Quinn et al. A homogeneous method for investigation of methyl-dependent protein-protein interactions in epigenetics. Nucleic Acids Res., 38(2):e11. 2010. PMID: […]
[5] Baell,Holloway. New substructure filters for removal of pan assay interference compounds (PAINS) from screening libraries and for their exclusion in bioassays. J Med Chem. 53(7):2719-40. 2010. PMID: 20131845
NIH Molecular Libraries Probe Production Network [MLPCN]
NIH Chemical Genomics Center [NCGC]
Structural Genomics Consortium (SGC)
To each well of a 1,536w plate, 2ul of JMJD2A-Tudor (final 100nM) and 1ul biotinylated histone peptide methylated at Lys4 [b-H3(1-18)K4me3] (final 50nM) were added in 1x PBS buffer, pH 7.4, containing 0.01% Tween-20, using a nanoliter dispenser. Formation of a protein-peptide complex proceeded at room temperature for 30 min. A Kalypsys pin-tool transferred 23nl of library compound solution in DMSO to each well. Following a 30 min incubation of the protein-peptide complex with compounds at room temperature, a mixture of 40 µg/mL each streptavidin-coated donor and nickel chelate acceptor AlphaScreen beads (final 10 µg/mL) was added in a 1ul dispense for a final volume of 4ul, followed by a brief centrifugation (1000 rpm, 1 min). Plates were incubated protected from the light for 20 min at room temperature. Microplates were then read on an EnVision multilabel plate reader using the 1,536 plate HTS AlphaScreen aperture (excitation time 80 ms, measurement time 240 ms).
% is scaled to controls: 0 for no effect and ±100 for the full control effect; potency is read from the fitted curve at half-maximal effect; tags tell the direction and shape of the fitted curve.
Also: nearly all actives have a fitted effect of over 50% in size.

UniProt O75164, sequence (O75164 whole entry, looked up, the tested form may be a part): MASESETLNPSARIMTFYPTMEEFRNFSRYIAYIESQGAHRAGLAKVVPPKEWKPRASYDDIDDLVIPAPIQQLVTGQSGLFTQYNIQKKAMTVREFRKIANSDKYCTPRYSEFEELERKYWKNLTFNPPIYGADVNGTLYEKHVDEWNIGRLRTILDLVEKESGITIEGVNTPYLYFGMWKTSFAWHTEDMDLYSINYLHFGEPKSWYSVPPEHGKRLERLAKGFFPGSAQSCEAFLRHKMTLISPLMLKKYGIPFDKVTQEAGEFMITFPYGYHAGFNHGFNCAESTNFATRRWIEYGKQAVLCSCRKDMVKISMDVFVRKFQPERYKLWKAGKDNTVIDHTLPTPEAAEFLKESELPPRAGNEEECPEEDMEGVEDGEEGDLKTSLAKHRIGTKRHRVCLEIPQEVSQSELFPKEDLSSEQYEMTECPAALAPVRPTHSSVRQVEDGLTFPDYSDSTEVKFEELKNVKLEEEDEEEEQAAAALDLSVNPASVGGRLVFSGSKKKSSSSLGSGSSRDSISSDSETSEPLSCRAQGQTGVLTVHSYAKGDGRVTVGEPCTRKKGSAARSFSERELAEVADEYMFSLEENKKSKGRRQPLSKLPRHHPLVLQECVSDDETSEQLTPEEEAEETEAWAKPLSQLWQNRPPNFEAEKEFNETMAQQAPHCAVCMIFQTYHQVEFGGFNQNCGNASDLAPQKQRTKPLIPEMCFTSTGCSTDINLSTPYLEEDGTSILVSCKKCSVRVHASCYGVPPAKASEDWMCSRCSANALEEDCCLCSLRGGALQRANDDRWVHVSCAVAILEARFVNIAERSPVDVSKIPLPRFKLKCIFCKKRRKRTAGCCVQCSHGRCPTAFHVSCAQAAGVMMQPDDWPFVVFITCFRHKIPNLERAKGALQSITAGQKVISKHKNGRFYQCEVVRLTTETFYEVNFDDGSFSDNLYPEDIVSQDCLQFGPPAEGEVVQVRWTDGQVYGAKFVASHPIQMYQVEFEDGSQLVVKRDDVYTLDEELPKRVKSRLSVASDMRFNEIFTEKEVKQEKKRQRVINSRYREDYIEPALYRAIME

| Structure (SMILES) | Potency | activity change, negative = inhibition |
| --- | --- | --- |
| COc1cc(C2/C(=C(/O)c3ccc(F)cc3)C(=O)C(=O)N2CCCC(=O)O)ccc1O (stereo not drawn) | inconclusive: 31.6 µM [inhibitor, full curve, poor fit] |  |
| CCOC(=O)c1[nH]c(C)c(C(=O)OCC(=O)N(Cc2ccccc2)C(C)C)c1C | inconclusive: 56.2 µM [inhibitor, partial curve] |  |
| CSc1nnc(-c2ccc(NC(N)=S)cc2)o1 | inactive |  |
| Oc1ccccc1/C=N/n1c(-c2cccs2)n[nH]c1=S | active: 22.4 µM |  |
| CCN(CC)c1ccc(/C=N/N2CCN(c3ccccc3OC)CC2)cc1 | active: 31.6 µM |  |
| CC(C)(C)C(=O)[C@H]1[C@H](c2ccccc2)[C@@]2(N=C(c3ccccc3)OC2=O)C2c3ccccc3C=NN21 (stereo partly drawn) | inconclusive: 56.2 µM [inhibitor, partial curve] |  |
| CC(C)Cn1c(=O)c2ccccc2n2c(-c3ccc(Br)cc3)nnc12 | inconclusive: 63.1 µM [inhibitor, partial curve, poor fit] |  |
| Cc1ccc(-c2cn3cccc(C)c3n2)cc1NS(=O)(=O)c1ccccc1 | inconclusive: 50.1 µM [inhibitor, partial curve] |  |
| COc1ccc(N2CCN(C(=O)COC(=O)c3c(-c4ccccc4)noc3C)CC2)cc1 | inconclusive: 56.2 µM [inhibitor, partial curve] |  |
| Cc1nc(N2C(=O)C(=O)/C(=C(/O)c3ccccc3)C2c2ccco2)sc1C (stereo not drawn) | inconclusive: 89.1 µM [inhibitor, single point] |  |
| N#Cc1c(N)nc2c(c1N)CC(CCl)O2 (stereo not drawn) | inconclusive: 39.8 µM [inhibitor, single point] |  |
| CC(C)(C)c1ccc(-c2n[nH]c(=S)n2/N=C/c2ccncc2)cc1 | inconclusive: 39.8 µM [inhibitor, single point] |  |
| CCc1ccc(OCC2c3cc(OC)c(OC)cc3CCN2C(=S)NC)cc1 (stereo not drawn) |  | inconclusive: -44.9% [inhibitor] |
| Cc1cc(C)c(Cn2c3ccccc3c3cnn(CC(=O)NCCCc4ccccc4)c(=O)c32)c(C)c1 | inconclusive: 39.8 µM [inhibitor, single point] |  |
| c1ccc(-[n+]2nc(Nc3cccc4ccccc34)sc2-c2c3ccccc3cc3ccccc23)cc1 | active: 2.51 µM |  |
| O=C(NCc1cccc(Cl)c1)c1cccn1-c1nnc(N2CCCC2)s1 | inactive |  |
| Cc1oc2ccc(Br)cc2c(=O)c1-c1nn[nH]n1 | inconclusive: 15.8 µM [inhibitor, single point] |  |
| O=C(Nc1cccc(S(=O)(=O)NC2=NCCC2)c1)C1CC(=O)N(c2ccc3c(c2)OCCO3)C1 (stereo not drawn) | inconclusive: 56.2 µM [inhibitor, partial curve] |  |
| CNCC(O)c1ccc(OC(=O)C(C)(C)C)c(OC(=O)C(C)(C)C)c1 (stereo not drawn) | inactive |  |
| CCOCCOC(=O)c1[nH]c2c(c1C)C(=O)CC(c1ccc(N(C)C)cc1)C2 (stereo not drawn) | inconclusive: 25.1 µM [inhibitor, full curve] |  |
| C[C@H](CO)N1C[C@H](C)[C@@H](CN(C)C(=O)Nc2ccc3c(c2)OCO3)Oc2c(NC(=O)Nc3ccc4c(c3)OCO4)cccc2C1=O | inconclusive: 63.1 µM [inhibitor, single point] |  |
| COc1cccc(CNS(=O)(=O)c2c(C)[nH]c(C)c2C(=O)N2CCCCC2)c1 | inconclusive: 22.4 µM [inhibitor, full curve] |  |

| Structure (SMILES) | Potency | activity change, negative = inhibition |
| --- | --- | --- |
| Cc1ccc(Cl)cc1N1CCN(C(c2ccc(F)cc2)c2nnc(-c3ccccc3)o2)CC1 (stereo not drawn) | inconclusive: 89.1 µM [inhibitor, single point] |  |
| NC1=NC(=O)/C(=C/c2ccc(-c3ccc(S(N)(=O)=O)cc3)o2)S1 | inconclusive: 50.1 µM [inhibitor, partial curve] |  |
| CCOC(=O)COn1c(-n2nc(C)cc2C)nc2ccccc2c1=O | inactive |  |
| O=C(CN1C(=O)CSC1=O)Nc1ccc(F)c(F)c1F | inconclusive: 39.8 µM [inhibitor, single point] |  |
| CN(C)CCCN(C(=O)c1ccc(S(=O)(=O)N2CCCCCC2)cc1)c1nc2cc3c(cc2s1)OCCO3 | inconclusive: 56.2 µM [inhibitor, partial curve] |  |
| C=CCn1c(N)c(C(=O)Nc2ccccc2OC)sc1=S | inconclusive: 56.2 µM [inhibitor, partial curve] |  |
| N#CCCN(C1CCCCC1)S(=O)(=O)c1cccc2nsnc12 | inconclusive: 39.8 µM [inhibitor, single point] |  |
| O=C(NCC1(c2ccccc2)CCCC1)C(=O)Nc1cccc(C(F)(F)F)c1 | inactive |  |
| Cc1cc(C)n2nc(SCC(=O)NC(=O)c3ccccc3)nc2n1 | inactive |  |
| N#Cc1nc(COc2ccc(Cl)cc2)oc1N1CCCCCC1 | inconclusive: 31.6 µM [inhibitor, partial curve] |  |
| CCc1ccccc1OCC(=O)Nc1ccc(N2CCCC2)cc1C | inconclusive: 6.31 µM [inhibitor, full curve, poor fit] |  |
| CCC1=C/C(=C/N(C)c2ccccc2)C(=O)S1 | inconclusive: 79.4 µM [inhibitor, partial curve] |  |
| Cc1cccc(NC(=S)N/N=C/C(C)c2ccccc2)c1C (stereo not drawn) | inconclusive: 39.8 µM [inhibitor, partial curve] |  |
| CCOC(=O)Cc1csc(NC(=O)/C=C/c2ccco2)n1 | inactive |  |
| CCN(CC)c1ccc(NC(=O)CSc2nc3ccccc3c(=O)n2-c2cc(S(=O)(=O)N(C)C)ccc2C)cc1 | inconclusive: 5.01 µM [inhibitor, partial curve, poor fit] |  |
| Cc1cc2c(s1)c1cnn(Cc3ccc(Cl)c(Cl)c3)c(=O)c1n2C | inactive |  |
| O=C(CCl)N1c2ccccc2Oc2ccc3ccccc3c21 | active: 56.2 µM |  |
| CCCOc1ccc(OC(=O)c2sc3ncn(Cc4cccc(F)c4)c(=O)c3c2C)cc1 | inactive |  |
| CCN(CC)S(=O)(=O)c1ccc(N2CCCC2)c(NC(=O)Cc2c(F)cccc2Cl)c1 | inactive |  |
| Cc1ccc2cc(CN(Cc3ccco3)Cc3nnnn3Cc3ccco3)c(=O)[nH]c2c1 | inactive |  |
| CN(C)C(=S)Nc1ccc([N+](=O)[O-])cc1 | inactive |  |

Reference: PubChem BioAssay AID504339 (National Center for Advancing Translational Sciences (NCATS), 2011)
